In publication PMC11685948:
Results are given in words; binding and its absence hold for the method and conditions named. In cells and extracts the contact can be indirect. Some binding calls cover weakened binding; strength is not graded here.

Target: ZAP-L-FLAG (human), Q7Z2W4
Assay: co-IP; anti-FLAG IP of doxycycline-induced ZAP-L-FLAG or ZAP-N-FLAG from RNase A-treated lysates of 293T ZAP-/- TRIM25-/- KHNYN-/- N4BP1-/- cells transfected with 3xHA-tagged ZAP proteins; washes with 500 mM KCl; western blot (Fig. 2d)
Settings: remark: other sources report otherwise

binding: binds
B1: ZAP-L-3xHA, Q7Z2W4-1 1-902 (protein)
chain: MADPEVCCFITKILCAHGGRMALDALLQEIALSEPQLCEVLQVAGPDRFVVLETGGEAGITRSVVATTRARVCRRKYCQRPCDNLHLCKLNLLGRCNYSQSERNLCKYSHEVLSEENFKVLKNHELSGLNKEELAVLLLQSDPFFMPEICKSYKGEGRQQICNQQPPCSRLHICDHFTRGNCRFPNCLRSHNLMDRKVLAIMREHGLNPDVVQNIQDICNSKHMQKNPPGPRAPSSHRRNMAYRARSKSRDRFFQGSQEFLASASASAERSCTPSPDQISHRASLEDAPVDDLTRKFTYLGSQDRARPPSGSSKATDLGGTSQAGTSQRFLENGSQEDLLHGNPGSTYLASNSTSAPNWKSLTSWTNDQGARRKTVFSPTLPAARSSLGSLQTPEAVTTRKGTGLLSSDYRIINGKSGTQDIQPGPLFNNNADGVATDITSTRSLNYKSTSSGHREISSPRIQDAGPASRDVQATGRIADDADPRVALVNDSLSDVTSTTSSRVDDHDSEEICLDHLCKGCPLNGSCSKVHFHLPYRWQMLIGKTWTDFEHMETIEKGYCNPGIHLCSVGSYTINFRVMSCDSFPIRRLSTPSSVTKPANSVFTTKWIWYWKNESGTWIQYGEEKDKRKNSNVDSSYLESLYQSCPRGVVPFQAGSRNYELSFQGMIQTNIASKTQKDVIRRPTFVPQWYVQQMKRGPDHQPAKTSSVSLTATFRPQEDFCFLSSKKYKLSEIHHLHPEYVRVSEHFKASMKNFKIEKIKKIENSELLDKFTWKKSQMKEEGKLLFYATSRAYVESICSNNFDSFLHETHENKYGKGIYFAKDAIYSHKNCPYDAKNVVMFVAQVLVGKFTEGNITYTSPPPQFDSCVDTRSNPSVFVIFQKDQVYPQYVIEYTEDKACVIS
